From the supplement of paper PMC3334620
Over roughly 33,000 sequences, “E-score (-0.5 to 0.5)” has its median near -0.013; the highest 2% begin near 0.3. The list shows a part of the results.

target: T1, Msn1 (UniProt P22148); assay: PBM E-score (8-mer binding enrichment) (E-score (-0.5 to 0.5)); higher = stronger / more preferred TF binding; most listed sequences are background and not binding sites; settings: protein concentration: 200 nM; construct: GST-full length
T1 sequence: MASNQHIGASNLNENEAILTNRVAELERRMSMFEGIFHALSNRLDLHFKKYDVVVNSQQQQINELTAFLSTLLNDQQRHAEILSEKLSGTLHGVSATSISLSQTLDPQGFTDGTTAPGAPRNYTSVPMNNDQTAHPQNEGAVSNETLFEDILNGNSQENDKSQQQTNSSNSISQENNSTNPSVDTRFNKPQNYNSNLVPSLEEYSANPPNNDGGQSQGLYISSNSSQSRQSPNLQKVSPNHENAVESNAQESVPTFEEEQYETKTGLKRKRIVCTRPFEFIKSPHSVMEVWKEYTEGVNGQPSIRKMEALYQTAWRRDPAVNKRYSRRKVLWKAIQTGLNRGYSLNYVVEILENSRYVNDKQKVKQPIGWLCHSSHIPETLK
In short: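 The E-score, a modified Wilcoxon-Mann-Whitney statistic, was computed by the Universal PBM Analysis Suite for every ungapped eight-base word pooled with its reverse complement. Scans behind it were normalised with masliner after bound GST-tagged yeast transcription factors were detected with fluorescent anti-GST. The proteins, at about 100-200 nM, had been applied to universal all-10-mer Agilent arrays made double-stranded by primer extension.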

Sequence | PBM E-score
GAGAGAAC | -0.203
ACTGGAAT | -0.0242
CGCAGGGC | -0.0851
AATGTTAG | 0.0507
CACAAGCG | -0.153
GCTCCTGA | -0.142
GGTGCTAA | -0.0143
AATCAATG | 0.151
AATCTACG | -0.0949
GTGTGAGA | -0.117
ACGGCCAC | -0.0537
ATGGTTGA | -0.138
CACAACTA | 0.0811
CTCACAAA | -0.057
CGCGTGGC | -0.0512
AATTCAGG | 0.109
CAGTGTAC | 0.0681
TAACAATA | 0.174
AGACTACG | -0.214
GCATACAC | -0.0445
AAATATAG | 0.268
GAGGCTCA | -0.37
CATTTTGA | 0.157
CGCTTAAA | -0.0836
CGACCCCG | -0.346

Sequence | PBM E-score
TAAGGATA | 0.13
ATTATTCA | 0.202
CCTTTATC | -0.0525
CTCCCAGC | -0.088
TAAGTGTA | 0.174
GCTGGGAA | -0.0782
ATCTCTCA | 0.0118
CGTTCGCA | -0.115
CCGGGTAG | -0.133
CGTAACGA | -0.0332
ACTGCGGC | -0.135
CGCACCCC | -0.4
TTAGCCAA | -0.0717
TAACAGAA | 0.131
AGTGAGAG | -0.225
CAGAGACG | 0.0409
GCCCAGCA | -0.325
ACCGCGGA | 0.0405
ACTACCAA | -0.123
AGATAACC | -0.041
AGCTTTAC | -0.141
AGGAAGAA | -0.27
CGTTGACA | 0.17
GAAAGAAC | 0.00604
ACGGGGAC | 0.007

Sequence | PBM E-score
CGGGTAGC | -0.206
ATATAGCC | 0.0497
GCCAGAAC | -0.0373
CTTGGCAC | 0.0174
ACGTTTGA | 0.105
CTTGGCCA | -0.0402
GCGACTAA | 0.048
CGGTTGTC | 0.136
GCCTGTAA | -0.193
ATATCTAC | 0.0547
ATCTTCCA | -0.148
AGTTATAG | 0.1
ATTACCTA | 0.0259
AGCTCGAC | -0.0285
CCCAGGCC | -0.194
AAAGTGGC | -0.203
GATGGGTA | -0.0575
AGTGTCCC | 0.375
ATCAGGTC | 0.0328
GCTCATAA | -0.103
AATAATCG | 0.035
GGGCCATA | 0.024
CTTCGCAA | 0.0342
TATAGCGA | -0.138
ACGGATAC | 0.101

Sequence | PBM E-score
CACCAGCC | -0.268
CTTTGACA | 0.132
ACCGGTAG | -0.227
AAACATGA | 0.197
TCTCTTAA | 0.0588
GGCCTGGA | -0.179
CACAAGTC | 0.0697
CCGTCCCA | -0.191
ATGCTCGA | 0.00559
ATGATAAT | 0.0338
GACTAAAC | -0.144
CAAGCGTG | 0.0238
TCTATACA | -0.0294
GGTGGCCA | -0.242
GAAAGATA | -0.00073
CGTACTAA | 0.093
AGTGGGCG | -0.0515
AATCCGAC | 0.174
ACCCCCCA | -0.31
CGACTGAA | 0.038
CTGTACTC | -0.0785
ACAATGGA | 0.243
ACGCTTCC | -0.194
CGCTCCGA | 0.119
CGATTAGA | -0.0577

Sequence | PBM E-score
GGTACCTA | -0.0691
ATCTTAGG | -0.147
AACCTCGT | -0.0168
AGACTAGG | -0.0685
GTGGTGGA | -0.0952
CCCACAGA | -0.021
CGGATAGA | 0.18
ATCAGATA | 0.00322
TGCTCTAA | -0.00439
GATATATA | 0.235
CGCTATGC | -0.215
AGGCGCAG | -0.134
AGGGAAAT | -0.0436
CGGCAACC | -0.111
CAGTCTAC | -0.223
ACTACTTC | 0.00092
TAACATAA | 0.214
GACCGCTA | -0.107
GAATGCTA | -0.112
CCTTCATC | -0.249
GGTATAAA | 0.183
ACACCACC | -0.0854
GGCTTCTA | -0.0417
ATTCTGTG | 0.117
GCCATTCC | -0.174

Sequence | PBM E-score
GGACTCGA | -0.105
TACCACGA | 0.0799
CGAAGCTC | -0.107
ATTGCGCA | -0.0114
ATTGGTTC | 0.0715
ATACGGTC | 0.0431
AAGCGAGG | -0.178
AGACAGAG | -0.00872
ATGCAGCC | 0.0973
CGGAATGA | 0.0592
CGACACAC | 0.0525
CAAAACCG | 0.0278
GATCGAGA | -0.0215
AGTGTGGC | -0.0887
ATGTGGCC | -0.0259
CATTCCAG | -0.0187
GGAACCCA | -0.0761
CGCATGGA | -0.0802
CATTATGG | -0.157
CCTTCGCG | 0.0386
ATCTTGTC | 0.246
CTCTCTGA | -0.172
CTAACCGA | -0.149
CATTGTTA | 0.11
CTGGGCGC | -0.202

Sequence | PBM E-score
AGGATTGA | 0.112
AGAACCAA | -0.13
ACCCAATC | -0.0136
GACTGGCA | -0.235
CAATTGGG | -0.0445
AGCAATCG | 0.0419
AACGCCAA | -0.0218
GAGTGATA | 0.105
ATGGCCGG | -0.0642
CCCGCTCA | -0.172
AGAAGGAG | -0.387
ATCTTACA | 0.128
CTCATCCA | -0.125
TTGGGAAA | 0.0587
CCCGGTAG | -0.114
GACGAGAA | 0.103
GGCGCACA | 0.0215
AGAAAAGC | -0.0232
CGTAAAGC | -0.187
TAATATCA | 0.108
AGGACACT | 0.358
ACCGAGCC | 0.0368
